Laboratory results reported in PubChem BioAssay AID1346428 (National Center for Advancing Translational Sciences (NCATS), 2018).
Where “and” joins values, the source holds several entries; their conditions need not be identical. Identical values can stand only once. About 1,200 (2.5%) of roughly 48,000 compounds were called active. Another 2% or so got no clear call; they are omitted.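 Rule for the calls: active = activation of at least 60% and not above a set upper limit (about 1 call in 100 departs from these limits); inconclusive = activation of 40% to 60%, or above that upper limit; inactive = activation under 40%.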 Some of the results follow.

Each compound was assayed against Probable G-protein coupled receptor 32 (Homo sapiens) (UniProt O75388) (assay: qHTS for Agonists of Human Resolvin D1 Receptor DRV1). Details: CHO-K1 GPR32 beta-arrestin PathHunter luminescence, 90 min; at 76.9 µM; hits give high values; zero percent set by DMSO-only wells.
Sequence of UniProt O75388 (O75388 whole entry, looked up, the tested form may be a part): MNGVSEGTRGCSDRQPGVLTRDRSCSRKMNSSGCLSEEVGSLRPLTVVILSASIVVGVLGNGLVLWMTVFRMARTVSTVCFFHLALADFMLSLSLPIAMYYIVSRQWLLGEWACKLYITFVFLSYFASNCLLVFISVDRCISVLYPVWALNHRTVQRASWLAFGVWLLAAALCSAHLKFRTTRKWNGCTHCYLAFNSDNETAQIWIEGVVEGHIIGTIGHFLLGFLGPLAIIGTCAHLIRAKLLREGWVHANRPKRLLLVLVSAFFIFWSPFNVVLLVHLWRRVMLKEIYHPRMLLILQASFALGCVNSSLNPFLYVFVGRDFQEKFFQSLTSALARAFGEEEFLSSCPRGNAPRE
How it was run: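 Agonism was scored as beta-arrestin recruitment to ProLink-fused GPR32 in stably transfected CHO-K1 cells, giving a chemiluminescent beta-Gal signal; compounds were incubated 90 min at 37 °C.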
Note: 0% is about no effect.

activation, inactive:
O=C(OCc1cc(=O)n2nc(-c3cccs3)sc2n1)c1ccccc1 -0.717%
CC(=O)n1nc(-c2cccnc2)nc1NCc1ccc(F)cc1 -2.8%
O=C(c1ccc(Cl)cc1)N1CCC(c2nc3ccccc3o2)CC1 -7.55%
O=C1c2oc3ccccc3c(=O)c2C(c2ccc(O)cc2)N1Cc1ccc2c(c1)OCO2 (centres undefined) -8.49%
CCn1cc(C(=O)OCC(=O)Nc2cc(OC)cc(OC)c2)c(=O)c2ccc(C)nc21 -9.93%
Cc1ccc(CNC(=O)CN2C(=O)CSc3ccc(S(=O)(=O)N(C)C)cc32)cc1 14%
CCOc1ccc(NC(=O)c2c(NCc3ccc(C)o3)sc3c2CCCCC3)cc1 -19.5%
COc1ccc(OC)c(CCNC(=O)Cn2ccc3cc(S(=O)(=O)N4CCCCC4)ccc32)c1 0.0291%
CCCC(CCC)C(=O)O -15.2% and -5.38%
CC(C)[N+](C)(C)CC(O)COc1cccc2ccccc12 (centres undefined) 5.64%
COc1ccc(OC)c(-c2noc(N3CCN(c4cc(C)ccc4C)CC3)n2)c1 1.04%
Cc1ccc(C)c(CNC(=O)c2ccc3c(c2)nc2n3CCC(C)C2)c1 (centres undefined) -14.2%
Cc1ccc(N(C)S(=O)(=O)c2nnc(NC(=O)CC(C)C)s2)cc1 -10.1%
COc1ccccc1-c1cc2nc(C)c(CCC(=O)NCCc3ccc(SC)cc3)c(C)n2n1 -15.5%
CCOC(=O)c1cc(OC(=O)c2ccc(OC)cc2)n(-c2ccccc2)n1 6%
COc1ccc(NC(=O)C(Cc2ccccc2)NS(=O)(=O)c2ccc3c(c2)CCN3C(C)=O)cc1 (centres undefined) -12%
CCCn1c(=N)c(C(=O)NCc2cccnc2)cc2c(=O)n3ccccc3nc21 39.9%
CN(C)CCCC1(c2ccc(F)cc2)OCc2cc(C#N)ccc21 (centres undefined) 0.401%
Nn1nnc2ccccc21 1.4%
CCOC(=O)Cc1ccc(NC(=O)Nc2cc3c(cc2N2CCCCC2)n(C)c(=O)n3C)cc1 19%
O=C(Nc1ccc(F)cc1F)c1ccc2c(c1)CCN2S(=O)(=O)c1ccc(Cl)cc1 -7.81%
COc1ccc(-n2cc(C(=O)Nc3cc(F)ccc3F)c3ccccc3c2=O)cc1 -25.3%
CCOC(=O)c1cc2c(=O)n3ccccc3nc2n(C)c1=NC(=O)c1c(-c2ccccc2Cl)noc1C 1.27%
Cc1ccc(NC(=O)Cn2c(=O)ccc3cc(S(=O)(=O)N4CCC(C)CC4)ccc32)c(C)c1 -2.3%
COCCCNC(=O)C1CCC(CNS(=O)(=O)c2ccc(OC)cc2)CC1 (centres undefined) -7.55%
CCCCOC(=O)c1ccc(NC(=O)CC2NCCNC2=O)cc1 (centres undefined) -6.26%
CCOc1ccc(CNC(=O)Cn2ccc3cc(S(=O)(=O)N4CCCCCC4)ccc32)cc1 23.4%
COc1ccc2oc(=O)c(C(=O)Nc3cccc(C(=O)O)c3)cc2c1 -2.49%
COc1cccc(CNC(=O)C2CCN(Cc3cc4ccccc4n3Cc3ccc(C)cc3)CC2)c1 -9.35%
COc1cc(-c2cc3n(C)c(C)c(CCC(=O)NCc4ccccc4)c(=O)n3n2)cc(OC)c1OC -17.7%
Cc1ccc2occ(CC(=O)Nc3ccc(S(=O)(=O)N4CCCC(C)C4)cc3)c2c1 (centres undefined) -4.36%
Cc1ccccc1Cn1nnc2c(=O)[nH]c(C3CCN(C(=O)c4ccccc4Cl)CC3)nc21 -18.6%
COc1ccc(NC(=O)C2CCN(C(=O)N3CCOc4ccccc43)CC2)cc1 2.5%
COc1ccc(NC(=O)CN2C(=O)CSc3ccc(S(=O)(=O)N(C)C)cc32)cc1Cl 5.24%
O=C(Nc1ccc(Cl)c(C(F)(F)F)c1)c1ccc2c(c1)CCN2S(=O)(=O)c1ccccc1 -4.56%
COc1ccc(CNC(=O)CCCn2c(=O)c3cccn3c3ccc(F)cc32)cc1OC -14.2%
Cc1ccc(-n2ncc(C(=O)NCc3ccccn3)c2C2CCN(C(=O)OC(C)(C)C)CC2)c(C)c1 19.8%
O=c1c2cc3c(cc2n(Cc2ccccc2)c(=O)n1Cc1nc(-c2ccccc2)no1)OCO3 10.4%
COc1ccc(-c2noc(N3CCC(C(=O)Nc4ccc(OC)c(OC)c4)CC3)n2)cc1 -0.373%
COCCCNC(=O)C(C)n1c2ccccc2c2cnn(C)c(=O)c21 (centres undefined) 0.249%
CCC1CN(C(=O)NCc2ccccc2)c2cc(C)ccc2O1 (centres undefined) -32.5%
COc1ccc(NC(=O)N2CCN(S(=O)(=O)c3ccc4c(ccn4C)c3)CC2)cc1OC 12.1%
Cc1cccc(C)c1NC(=O)CN(Cc1ccc(Br)cc1)S(=O)(=O)c1ccccc1 -3.31%
COc1ccc(Br)cc1CNC(=O)c1cc(=O)[nH]c2ccc(S(=O)(=O)N3CCCCC3)cc12 -5.68%
CCCSc1nc(-c2ccc(OC)cc2)cc(-c2ccccc2OC)c1C#N -16.4%
CN(C)c1ccc(C(CNC(=O)c2cccc(C(F)(F)F)c2)N2CCCC2)cc1 (centres undefined) -19.3%
COc1ccc(Cl)cc1Nc1cc(C)nc2nc(-c3ccccc3C)nn12 1.5%
CCCCCCCC/C=C\CCCCCCCCN 14.4%
CCOc1ccc(NC(=O)C2CCN(S(=O)(=O)c3c(C)noc3/C=C/c3c(C)cc(C)cc3C)CC2)cc1 -13.4%
Cc1ccc(CNc2ncnc3c2c(-c2ccccc2)cn3-c2ccccc2)cc1 -13.7%
CCCC(=O)Nc1cccc(-c2cn3cccnc3n2)c1 13.1%
CCOC(=O)c1ccc(NS(=O)(=O)c2ccc3c(c2)OCCO3)cc1 31.3%
CN(C)[C@@H](CCOc1cccc2ccccc12)c1ccccc1 3.64%
Cc1cc(C)cc(NC(=O)c2oc3ccc4c(c3c2C)C(=O)CC(C)(C)O4)c1 10.3%
